# Reference: PubChem BioAssay AID588453 (National Center for Advancing Translational Sciences (NCATS), 2011)
# Several values for one entry are separate records, joined by “and”; a condition that tells them apart may be missing. Equal values may be shown once. The campaign covered roughly 390,000 compounds. About 4,000 (1%) were called active. This list was built around the results that the source calls inconclusive (neither active nor inactive); the mix of calls is not that of the screen. Calls follow the shape of the dose curve; as a rule, active = well fitted inhibition curve with a large enough effect; inconclusive = small, poorly fitted or top-dose-only effect; inactive = no such curve, though single readings can be large or run the other way. A potency beside an inconclusive call is a rough fit, not a confirmed value.
# Target: Thioredoxin reductase 1, cytoplasmic (Rattus norvegicus) (UniProt O89049)
# Assay: qHTS Assay for Inhibitors of Mammalian Selenoprotein Thioredoxin Reductase 1 (TrxR1): qHTS; also: nearly all actives have a fitted effect of over 65% in size
# Conditions: recombinant rTrxR1, NADPH fluorescence consumption, selenite substrate; series mostly up to 114 µM; activity change, negative = inhibition: at the top concentration
# Method in brief: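 Rat TrxR1 (90 nM in the dispensed reagent) was pre-reduced with 400 uM NADPH for 5 min at room temperature, then incubated with compound for 15 min. After 400 uM selenite was added, NADPH fluorescence (Ex 340/Em 450 nm) was followed for 8 min.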
# % is scaled to controls: 0 for no effect and ±100 for the full control effect; potency is read from the fitted curve at half-maximal effect; tags tell the direction and shape of the fitted curve.
# UniProt O89049, sequence (O89049 whole entry, looked up): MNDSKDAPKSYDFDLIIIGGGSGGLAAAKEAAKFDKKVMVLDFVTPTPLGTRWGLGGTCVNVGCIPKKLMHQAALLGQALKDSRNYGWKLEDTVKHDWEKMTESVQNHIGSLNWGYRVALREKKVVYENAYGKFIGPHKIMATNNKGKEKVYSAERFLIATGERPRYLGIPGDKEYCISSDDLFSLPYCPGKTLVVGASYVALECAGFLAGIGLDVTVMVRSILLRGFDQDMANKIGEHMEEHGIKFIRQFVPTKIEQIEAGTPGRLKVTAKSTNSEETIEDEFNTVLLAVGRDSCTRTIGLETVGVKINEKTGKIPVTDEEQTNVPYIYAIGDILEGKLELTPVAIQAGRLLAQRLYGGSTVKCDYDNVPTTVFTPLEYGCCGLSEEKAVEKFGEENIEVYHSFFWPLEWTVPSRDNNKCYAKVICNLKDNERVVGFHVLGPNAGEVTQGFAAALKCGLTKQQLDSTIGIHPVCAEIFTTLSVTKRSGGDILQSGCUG
Compound,Potency,"activity change, negative = inhibition"
O=C(CSc1nnc(CNc2ccc(F)cc2)n1Cc1ccco1)N1CCCC1,"inconclusive: 15.8 µM [inhibitor, full curve, poor fit]",–
CCCCN1C2=C(C(=O)CC(C)(C)C2)C(c2ccccc2)C2=C1c1ccccc1C2=O (stereo unspecified),"inconclusive: 50.1 µM [inhibitor, partial curve]",–
Cc1ccc(Cc2c(C)nc3nc(SCC(=O)NCCCN4CCCCCC4)nn3c2C)cc1,"inconclusive: 89.1 µM [inhibitor, partial curve, poor fit]",–
COc1cc(/C=N\Nc2ccc([N+](=O)[O-])cc2)ccc1OCC(=O)Nc1ccc(C)c(C)c1,–,inactive: -8.16%
COc1ccc(/C=N/Nc2ncccc2[N+](=O)[O-])c(OC)c1,–,inactive: 19.8% [at 57.1 µM]
Cc1ccc(SC(=O)COc2ccccc2C)cc1,"inconclusive: 10 µM [inhibitor, partial curve, poor fit]",–
CC(=O)n1nc(-c2ccco2)nc1SCc1ccccc1,"inconclusive: 14.1 µM [inhibitor, partial curve]",–
CNC(=S)NN=C(C)c1ccc(OC)cc1O,"inconclusive: 31.6 µM [inhibitor, partial curve]",–
CCC1CC=CC2C1C(=O)N(Cc1ccccc1)C2c1cccc([N+](=O)[O-])c1 (stereo unspecified),"inconclusive: 35.5 µM [inhibitor, single point]",–
CCOc1ccc(C(=O)OCC(=O)NCc2ccco2)cc1OCC,"inconclusive: 50.1 µM [inhibitor, partial curve, poor fit]",–
CCN(CC)CCNC(=O)CSc1nc2nc(C)c(Cc3ccccc3)c(C)n2n1,–,inactive: 23.9%
CSc1ccc(S(=O)(=O)NCC(=O)OCC(=O)NCCc2ccccc2)cc1[N+](=O)[O-],"inconclusive: 28.2 µM [inhibitor, single point]",–
COc1ccc(/C=C(\NC(=O)c2ccc(OCC(C)C)cc2)C(=O)OCc2ccco2)cc1,–,inactive: -27.7%
Cc1ccc(/C=C2\SC(N3CCN(C(c4ccccc4)c4ccccc4)CC3)=NC2=O)o1,"inconclusive: 56.2 µM [inhibitor, partial curve, poor fit]",–
COC(=O)CCc1c(C)[nH]c(=S)[nH]c1=O,"inconclusive: 5.62 µM [inhibitor, partial curve, poor fit]",–
CC(C)CN1CCC(=O)N([C@H](CSc2ccc(Br)cc2)c2ccccc2)CC1,"inconclusive: 39.8 µM [inhibitor, partial curve]",–
Cc1cccc(N2CCN(C(=O)C3CCCN(S(=O)(=O)c4ccc(Br)s4)C3)CC2)c1C (stereo unspecified),–,inactive: 3.09%
COC(=O)c1ccccc1NC(=S)NC(=O)c1ccc(C)cc1,active: 39.8 µM,–
CCNC(=S)NS(=O)(=O)c1ccc(Cl)cc1,"inconclusive: 15.8 µM [inhibitor, partial curve, poor fit]",–
C#CCOCCOCCOCCNc1nc(N2CCN(C(=O)[C@H](CCCCN)n3cc([C@@H](N)C(C)CC)nn3)CC2)nc(N2CCN(C(=O)[C@H](CCCCN)n3cc([C@@H](N)CC(C)C)nn3)CC2)n1 (stereo partly specified),"inconclusive: 79.4 µM [inhibitor, single point]",–
CN(CCC1CCOCC1)C(=O)CC1C(=O)NCCN1Cc1c(F)cccc1Cl (stereo unspecified),"inconclusive: 70.8 µM [inhibitor, partial curve]",–

Compound,Potency,"activity change, negative = inhibition"
CN(C)/C=C1\C=C2C(=O)c3ccccc3N2C1=O,"inconclusive: 56.2 µM [inhibitor, partial curve, poor fit]",–
COc1nc(C)cc(C)c1S(=O)(=O)c1ccccc1C,–,inactive: -11.9%
O=C(/C=C/c1cccc(O)c1)c1cccnc1,"inconclusive: 14.1 µM [inhibitor, partial curve]",–
CCC(=O)N1CCc2cc(S(=O)(=O)CCC(=O)Nc3cccc(F)c3)ccc21,"inconclusive: 44.7 µM [inhibitor, single point]",–
CC(Oc1ccccc1)C(=O)Nc1ccc(OCc2cc(=O)n3ccsc3n2)cc1 (stereo unspecified),–,inactive: 6.37%
COc1ccc(-c2nn(-c3ccccc3)cc2C(=O)N/N=C/c2ccc([N+](=O)[O-])o2)cc1,–,inactive: 0.529%
COc1cc(/C=N/n2cnnc2)ccc1OS(=O)(=O)c1ccccc1[N+](=O)[O-],"inconclusive: 89.1 µM [inhibitor, single point]",–
CC(C)OCCCn1c(SCC(=O)N2CCCC2=O)nc2ccccc2c1=O,–,inactive: -3.26%
COCCNC(=S)N/N=C/c1ccc(-c2ccc([N+](=O)[O-])cc2)o1,"inconclusive: 56.2 µM [inhibitor, partial curve, poor fit]",–
COc1ccc(O)c(-c2[nH]ncc2C(=O)c2cccc(C)c2)c1,–,inactive: 33.9%
CC(C)C[C@H](NC(=O)c1[nH]cnc1C(=O)N[C@@H](C)c1ccccc1)C(=O)OC(C)(C)C,–,inactive: -8.64%
COc1cc(SC#N)ccc1N=Cc1c(C)[nH]n(-c2ccc(Cl)cc2)c1=O,–,inactive: 14.4% [at 57.1 µM]
COc1ccc(/C=N/NC(=O)c2nn(C)cc2Br)cc1CSCc1ccco1,"inconclusive: 44.7 µM [inhibitor, partial curve, poor fit]",–
O=C1NC[C@H](Cc2ccccc2)N(C[C@H]2CCCN2C[C@H](Cc2ccccc2)N2C[C@H](Cc3ccc(O)cc3)N(CC3CCCCCC3)C(=O)C2=O)C1=O,–,inactive: 10.2%
COc1cccc(NC(=O)COC(=O)/C=C/c2ccco2)c1,active: 39.8 µM,–
CCN1C/C(=C/c2ccc(N3CCOCC3)cc2)C(=O)/C(=C/c2ccc(N3CCOCC3)cc2)C1,"inconclusive: 79.4 µM [inhibitor, single point]",–
COc1ccc(NC(=O)C(C/C=C(/C)Cl)C(C)=O)cc1 (stereo unspecified),"inconclusive: 12.6 µM [inhibitor, partial curve, poor fit]",–
Cc1cc(C)c2c(=O)n(CC(=O)NC3CCCC3)sc2n1,"inconclusive: 50.1 µM [inhibitor, partial curve, poor fit]",–
CSc1nc(O)c(C(c2ccc(F)cc2)c2c(O)nc(SC)[nH]c2=O)c(=O)[nH]1,"inconclusive: 20 µM [inhibitor, partial curve]",–
CCCc1nnc(NC(=O)c2nc(S(=O)(=O)Cc3ccc(C)cc3)ncc2Cl)s1,active: 3.55 µM and active: 50.1 µM,–
